Data on 56 variants can be found in the RNAGym collection of RNA variant scans (doi:10.7554/elife.90254).

B1: LINE1-mini (parent)
chain: GGCAGAGCUCAACACAGCGUGGCAAAGUGGCUGUGGCUAGACUGCC

The source gives no read counts; variants with many changes may rest on few reads.

Variants of B1 are the subject of this data set. The data set is described as follows: self-cleavage, relative activity (ratio to wild type); higher = more cleavage; in vitro, sequencing; the parent is a self-cleaving ribozyme.
In the case of GGCAGAGCUCAACACACCGUGGCAAUGUGGCUGUGGCUAGACUUCC [G17C A26U G44U], the self-cleavage turned out to be 0.04.

In the case of GGCAGAGCUCAACACAGCGUGGCAAUGUGGCUGUGGCUACAAUGCC [A26U G40C C42A], the self-cleavage was found to be 0.02.

As for GGCAGAGCUGAACACAGCGUGGCAAAGUGACUUUGGCUAGACUGCC [C10G G30A G33U], the self-cleavage is 0.02.

Regarding GGCAGAGCUCAGCACAUAGUGUCAAAGUGGCUGUGUCUAGACUGCC [A12G G17U C18A G22U G36U], the self-cleavage worked out at 0.04.

Turning to GCCAGAGCUCAACACAGCGUUGCAAAGUGGCUGUGGCUAGAGUGGC [G2C G21U C42G C45G], the self-cleavage amounted to 0.16.

Regarding GGCAGAGCUCAGUACAGCGUGGCAAAAUGGCUGUGGAUAGACCGCC [A12G C13U G27A C37A U43C], the self-cleavage turned out to be 0.08.

On to UGCAAAGCUCAACACACCGUGGCAACGUGGCUGUGGCUAGACUGCC [G1U G5A G17C A26C], for which the self-cleavage came out at 0.41.

As to GUCAGAGCACAAUACAGCGGGGCAAAGUGGCUGAGGCUAGACUGCC [G2U U9A C13U U20G U34A], the self-cleavage stood at 0.01.

Take GGCAGAGCUCAACACAGCGUGGCAAGGUGGCUGUGUCUAGACUUCC [A26G G36U G44U]: the self-cleavage is 0.03.

Consider GGCAAAGCUCAACACAGCGUGGCAUAGAGGCUGUGGAUAGACUGCC [G5A A25U U28A C37A], for which the self-cleavage came to 0.05.

With GGCGGAGCUCAACACAGCAUGGCAAAGUGGCUGUGGCUAGACCGCC [A4G G19A U43C], the self-cleavage was 2.08.

With GGCAGAGCUCAACACAGAGUGGCUAAGUCGCUGUGGCUGGACUGCC [C18A A24U G29C A39G], the self-cleavage came to 0.04.

As for GGCAGGGCGCAACACAACGUGGCAGAGUGGCUGUGGCUAGACUGCC [A6G U9G G17A A25G], the self-cleavage amounted to 0.01.

For GGCAGAACUCAAAACAGCGUGGCAAAGUAGCUGUCGCUAGACCGCC [G7A C13A G29A G35C U43C], the self-cleavage was 0.13.

On to GGCGGAGCUCUACACAGUGUGGCAAAGUGGCUGUGGCUAGACUGCC [A4G A11U C18U], for which the self-cleavage came out at 0.05.

With GGCAGAGCUCAACACAGCGUGGCAGAUCGGCUGUGGCUAGACUGCC [A25G G27U U28C], the self-cleavage was found to be 0.08.

In the case of GGCAGCAGUCAACACAGCGUAGCAAAGUGGCUGUGGCUAGACUGCC [A6C G7A C8G G21A], the self-cleavage turned out to be 0.07.

Turning to AGCAGAGCUCAACACAGCGUGGCAACGUGGCUGUGGCUAGGCUGCC [G1A A26C A41G], the self-cleavage is 0.08.

Turning to GUCAGAGCUAAACACAGCGUGGCAAAGUGCCUGUGGCUAGACUGCC [G2U C10A G30C], the self-cleavage was 0.02.

GGCAGAGCUCAACACAGGGGGGCAAAGUGGCUGUGGCUGGACUGCC [C18G U20G A39G]: the self-cleavage was 0.04.

For GGCAGGCCUCAACACAGCGUGGCAAAGUGGCUGUGGCUAUACUGCC [A6G G7C G40U], the self-cleavage came out at 0.14.

Take GGCAGAGCUCCACACAGCGUGACAAAGUGGCUGUGGCUAGACGGCC [A11C G22A U43G]: the self-cleavage came to 0.

Consider AGCAGAGCUAAACACAGCGUGGCAAAGUGGCUGUAGCUAGACUGCC [G1A C10A G35A], for which the self-cleavage turned out to be 0.05.

Turning to GGCAUAGCUCAACACAGCGUAGCAAAGUGGCUGUCGCUAGACUGCC [G5U G21A G35C], the self-cleavage was 0.06.

In the case of GGCGGAUCUCAACACAGCGUGGCAAAGUGGCUGUGGCUAGACUACC [A4G G7U G44A], the self-cleavage amounted to 0.16.

Turning to GGCAGAGCUCACCACAGCGUAGCAAAGUGGCUAUGGCUAUACAGCC [A12C G21A G33A G40U U43A], the self-cleavage amounted to 0.01.

As for GGCAGAGUUCAACAUAGCGUGGCAAAGUGGCUGUGACUAGACUGCC [C8U C15U G36A], the self-cleavage was 0.09.

On to GGCAGAGCUCCACACACCCUGGCAAAGUGGCUGUGGCUAGACUGCC [A11C G17C G19C], for which the self-cleavage is 0.03.

Regarding GGCAGAGCUCAACACAGCGUGGCAAAGAGGAUGUGGCUAGACUACC [U28A C31A G44A], the self-cleavage worked out at 0.17.

In the case of AGCAGAUCUCAACACAGCGUGGCCAAGUGGCUGUGGCUAGGCUGCC [G1A G7U A24C A41G], the self-cleavage turned out to be 0.24.

On to GGCAGAGCUGAACACAGCGUGGCACAGUGGCUGUGGCUAGACAGCC [C10G A25C U43A], for which the self-cleavage came to 0.01.

GCCAGAGCUCAACACAGCGAGGCAAAGUGGCUGUGGCUAGACUGAC [G2C U20A C45A]: the self-cleavage is 0.02.

GGCAGAGCUGAACACAGCGUGACUAAGUGGCAGUGGCUAGACAGCC [C10G G22A A24U U32A U43A]: the self-cleavage was found to be 0.

Turning to GGCAGAGCUCAACACAGCGUGGCAAACUGGCCGUGGCUAGACUGCA [G27C U32C C46A], the self-cleavage was determined as 0.18.

In the case of GGCAGAGCUCAACACAGCAUGGCAAAGGGGCCGUGGCUAGGCUGCC [G19A U28G U32C A41G], the self-cleavage amounted to 0.14.

GGCAGGGCUCAACACAGCGUGGCAAAGUGGCUGUGGCUAACUUACC [A6G G40A A41C C42U G44A]: the self-cleavage was found to be 0.08.

With GGCAGAGCUGAACACAGCAUGGCAAAUUGGCUGUGGCUAGACUGCC [C10G G19A G27U], the self-cleavage was 0.12.

In the case of GGCAGAGCUCAAUACAGCGUGGCUAAGCGGCUGUGGCUAAACUGCC [C13U A24U U28C G40A], the self-cleavage came to 0.01.

GGCAGAGCUCAAUACUGCCUGGCAAUGUGGCUGUGGCUAGACUCCA [C13U A16U G19C A26U G44C C46A]: the self-cleavage worked out at 0.06.

For GGCAGAGCUCAACCCAGCGUGGCCAAGUGGUUGUGGCUAGACUGCC [A14C A24C C31U], the self-cleavage came out at 0.

Consider GGCAGAGCUCAACACAGCGUGGCAAAGUGGCUGCGGCUAGAGUGAC [U34C C42G C45A], for which the self-cleavage turned out to be 0.01.

Turning to GGCAGAGCUAAACACAGCGUGGCAAAGUGGAAGUGGGUAGACUGCC [C10A C31A U32A C37G], the self-cleavage turned out to be 0.01.

As for GGCAGAGUUCAACACAGCGUGGUAAAGUGCCUGUGGCUAGACUGCC [C8U C23U G30C], the self-cleavage was 0.04.

With GGCAGAGCUCAACACAGUGUGGGAAAGUGGCUGUGGCUAGACCGCC [C18U C23G U43C], the self-cleavage came out at 0.01.

As for GGCAGAUCUCAACACCGCGUGGCAAAGGGGCUGUGGCUAGGCUGCC [G7U A16C U28G A41G], the self-cleavage stood at 0.04.

For GGUCGAGCCCAACACAGCGUGACAAGGUGUCUGUGGCUAGAAUGCC [C3U A4C U9C G22A A26G G30U C42A], the self-cleavage amounted to 0.01.

Turning to GACAGAGCUCAACACCGCGUAGCAAAGGGGCUGUGGCUAGACUGCC [G2A A16C G21A U28G], the self-cleavage is 0.07.

With GGCAGAGCUCUACACAGCAUGGCAAAGUGGCUGUGGCUAGACUGCA [A11U G19A C46A], the self-cleavage was 0.12.

As for GGCAGUGCUCAACAAAGCGUGGCUAAGUGGCUUUGGCUAGACUGCC [A6U C15A A24U G33U], the self-cleavage was found to be 1.08.

GCCAACGCUCAACACAGCGUGGCAAAGUGGCGGUGGCUAGACUGCC [G2C G5A A6C U32G]: the self-cleavage was 0.02.

Take GGCAGAGCUCACCACAGCGUGGCAAGGUGGCUGUGGCUUGAGUGCC [A12C A26G A39U C42G]: the self-cleavage is 0.

GGCAGAGCUCAAGACAGCUGGGCAAAGUGGCUGUGGCUAGCCUGCC [C13G G19U U20G A41C]: the self-cleavage turned out to be 0.04.

Regarding GGCAGGGCUCAACUCAGCGUGACAAAGUGGCUGUGGCUAGACUGCC [A6G A14U G22A], the self-cleavage was found to be 0.2.

Regarding GCCAGAGCUCAAUACAGCGUGGCAAAGUGGCUGUGGCUGGACUGUC [G2C C13U A39G C45U], the self-cleavage was 0.04.

Turning to GGCAGGGCUCAACACAGCGUGGCAAAGUGGUUGUGGUUAGACUGCC [A6G C31U C37U], the self-cleavage turned out to be 0.04.

GACAGAGCUCAACACAGCGUGGCAUAGUGGUUGUGGCUAGACUGCC [G2A A25U C31U]: the self-cleavage was found to be 0.17.
